Assay results from the supplement of paper PMC11876631.
± gives the standard deviation of the averaged measurements. Laboratory Escherichia coli strains with one amino-acid change in an essential protein, pooled on minimal glucose agar with carbenicillin or gentamicin at twice the control MIC (plus kanamycin and chloramphenicol for the plasmids), 48 h. Fold change of barcode share against drug-free plates; higher = less susceptible. Active = above 20 in both replicates (the paper's putatively resistant). '<' = one read or none on drug, '>' = one read or none on a drug-free plate. Shares are relative, so most strains fall below 1 when a few take over. Listed are strains with at least 15 reads on both drug-free plates, and hits; most hits rest on fewer reference reads. Replicate rank correlation about 0.5. Edits are read from barcodes.

B1: lpxD M255P (protein)
chain: MPSIRLADLAQQLDAELHGDGDIVITGVASMQSAQTGHITFMVNPKYREHLGLCQASAVVMTQDDLPFAKSAALVVKNPYLTYARMAQILDTTPQPAQNIAPSAVIDATAKLGNNVSIGANAVIESGVELGDNVIIGAGCFVGKNSKIGAGSRLWANVTIYHEIQIGQNCLIQSGTVVGADGFGYANDRGNWVKIPQIGRVIIGDRVEIGACTTIDRGALDDTIIGNGVIIDNQCQIAHNVVIGDNTAVAGGVIPAGSLKIGRYCMIGGASVINGHMEICDKVTVTGMGMVMRPITEPGVYSSGIPLQPNKVWRKTAALVMNIDDMSKRLKSLERKVNQQD
B2: lpxD V59A (protein)
chain: MPSIRLADLAQQLDAELHGDGDIVITGVASMQSAQTGHITFMVNPKYREHLGLCQASAAVMTQDDLPFAKSAALVVKNPYLTYARMAQILDTTPQPAQNIAPSAVIDATAKLGNNVSIGANAVIESGVELGDNVIIGAGCFVGKNSKIGAGSRLWANVTIYHEIQIGQNCLIQSGTVVGADGFGYANDRGNWVKIPQIGRVIIGDRVEIGACTTIDRGALDDTIIGNGVIIDNQCQIAHNVVIGDNTAVAGGVIMAGSLKIGRYCMIGGASVINGHMEICDKVTVTGMGMVMRPITEPGVYSSGIPLQPNKVWRKTAALVMNIDDMSKRLKSLERKVNQQD
B3: lpxD V59Q (protein)
chain: MPSIRLADLAQQLDAELHGDGDIVITGVASMQSAQTGHITFMVNPKYREHLGLCQASAQVMTQDDLPFAKSAALVVKNPYLTYARMAQILDTTPQPAQNIAPSAVIDATAKLGNNVSIGANAVIESGVELGDNVIIGAGCFVGKNSKIGAGSRLWANVTIYHEIQIGQNCLIQSGTVVGADGFGYANDRGNWVKIPQIGRVIIGDRVEIGACTTIDRGALDDTIIGNGVIIDNQCQIAHNVVIGDNTAVAGGVIMAGSLKIGRYCMIGGASVINGHMEICDKVTVTGMGMVMRPITEPGVYSSGIPLQPNKVWRKTAALVMNIDDMSKRLKSLERKVNQQD
B4: lpxD V123A (protein)
chain: MPSIRLADLAQQLDAELHGDGDIVITGVASMQSAQTGHITFMVNPKYREHLGLCQASAVVMTQDDLPFAKSAALVVKNPYLTYARMAQILDTTPQPAQNIAPSAVIDATAKLGNNVSIGANAAIESGVELGDNVIIGAGCFVGKNSKIGAGSRLWANVTIYHEIQIGQNCLIQSGTVVGADGFGYANDRGNWVKIPQIGRVIIGDRVEIGACTTIDRGALDDTIIGNGVIIDNQCQIAHNVVIGDNTAVAGGVIMAGSLKIGRYCMIGGASVINGHMEICDKVTVTGMGMVMRPITEPGVYSSGIPLQPNKVWRKTAALVMNIDDMSKRLKSLERKVNQQD
B5: lpxD V123W (protein)
chain: MPSIRLADLAQQLDAELHGDGDIVITGVASMQSAQTGHITFMVNPKYREHLGLCQASAVVMTQDDLPFAKSAALVVKNPYLTYARMAQILDTTPQPAQNIAPSAVIDATAKLGNNVSIGANAWIESGVELGDNVIIGAGCFVGKNSKIGAGSRLWANVTIYHEIQIGQNCLIQSGTVVGADGFGYANDRGNWVKIPQIGRVIIGDRVEIGACTTIDRGALDDTIIGNGVIIDNQCQIAHNVVIGDNTAVAGGVIMAGSLKIGRYCMIGGASVINGHMEICDKVTVTGMGMVMRPITEPGVYSSGIPLQPNKVWRKTAALVMNIDDMSKRLKSLERKVNQQD
B6: lpxD V123Q (protein)
chain: MPSIRLADLAQQLDAELHGDGDIVITGVASMQSAQTGHITFMVNPKYREHLGLCQASAVVMTQDDLPFAKSAALVVKNPYLTYARMAQILDTTPQPAQNIAPSAVIDATAKLGNNVSIGANAQIESGVELGDNVIIGAGCFVGKNSKIGAGSRLWANVTIYHEIQIGQNCLIQSGTVVGADGFGYANDRGNWVKIPQIGRVIIGDRVEIGACTTIDRGALDDTIIGNGVIIDNQCQIAHNVVIGDNTAVAGGVIMAGSLKIGRYCMIGGASVINGHMEICDKVTVTGMGMVMRPITEPGVYSSGIPLQPNKVWRKTAALVMNIDDMSKRLKSLERKVNQQD
B7: lpxD V123D (protein)
chain: MPSIRLADLAQQLDAELHGDGDIVITGVASMQSAQTGHITFMVNPKYREHLGLCQASAVVMTQDDLPFAKSAALVVKNPYLTYARMAQILDTTPQPAQNIAPSAVIDATAKLGNNVSIGANADIESGVELGDNVIIGAGCFVGKNSKIGAGSRLWANVTIYHEIQIGQNCLIQSGTVVGADGFGYANDRGNWVKIPQIGRVIIGDRVEIGACTTIDRGALDDTIIGNGVIIDNQCQIAHNVVIGDNTAVAGGVIMAGSLKIGRYCMIGGASVINGHMEICDKVTVTGMGMVMRPITEPGVYSSGIPLQPNKVWRKTAALVMNIDDMSKRLKSLERKVNQQD

target: Escherichia coli (laboratory strain); experiment: barcode share on antibiotic plates over drug-free plates; higher = less susceptible; settings: antibiotic: carbenicillin; 2× MIC (3.1 µg/mL)
Experimental: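 A pool of E. coli strains, each edited to carry one amino-acid change in an essential protein, was grown for 48 h on minimal glucose agar with or without antibiotic; strain barcodes were sequenced; mean of two replicates.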

Q: B1 was tested. Which “fold change of barcode share” value did it give?
A: 0.106 ± 0.066

Q: With B2 as the protein, how does the “fold change of barcode share” value read?
A: 0.316 ± 0.12

Q: How did the “fold change of barcode share” value turn out when B3 was run?
A: 0.364 ± 0.2

Q: For B4, which “fold change of barcode share” value is on record?
A: 0.368 ± 0.15

Q: B5 was tested. Which “fold change of barcode share” value did it give?
A: 0.341 ± 0.039

Q: B6 was tested. Which “fold change of barcode share” value did it give?
A: 0.267 ± 0.14

Q: With B7 as the protein, how does the “fold change of barcode share” value read?
A: 0.393 ± 0.059

same assay, conditions: antibiotic: gentamicin; 2× MIC (MIC 0.45 µg/mL)

Q: B1 was tested. Which “fold change of barcode share” value did it give?
A: < 0.02

Q: Which “fold change of barcode share” value does the source give for B2 here?
A: 0.00563 ± 0.0037

Q: With B4 as the protein, how does the “fold change of barcode share” value read?
A: 0.17 ± 0.24

Q: With B5 as the protein, how does the “fold change of barcode share” value read?
A: 0.00516 ± 0.0019

Q: Which “fold change of barcode share” value does the source give for B6 here?
A: 0.11 ± 0.15

Q: B7 was tested. Which “fold change of barcode share” value did it give?
A: 0.00415 ± 0.0025
